This is one part of the list. These are noisy estimates, calculated here from bound and input reads.

This assay deals with T1, Pho4 (S. cerevisiae) (UniProt P07270).
T1 sequence: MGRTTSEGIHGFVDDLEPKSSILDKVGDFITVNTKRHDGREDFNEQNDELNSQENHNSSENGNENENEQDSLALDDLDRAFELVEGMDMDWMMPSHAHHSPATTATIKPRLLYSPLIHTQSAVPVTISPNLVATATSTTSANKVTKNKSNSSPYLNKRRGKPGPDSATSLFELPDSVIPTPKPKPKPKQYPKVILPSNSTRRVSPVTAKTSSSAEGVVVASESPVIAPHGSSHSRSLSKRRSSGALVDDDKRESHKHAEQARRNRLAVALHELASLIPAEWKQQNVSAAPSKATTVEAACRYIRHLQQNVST
In words: relative binding free energy (BET-seq); higher = weaker binding. The conditions noted are these: reference: library average.
For CATTTCACGTGAGGAT, the “relative binding free energy” value amounted to 0.47 kcal/mol.

Regarding GTGCTCACGTGTACGT, the “relative binding free energy” value came out at 0.36 kcal/mol.

With GTTGACACGTGGTATC, the “relative binding free energy” value turned out to be 0.07 kcal/mol.

For TCAAACACGTGTTGGT, the “relative binding free energy” value came to 0 kcal/mol. Turning to GAAAGCACGTGTTAGT, the “relative binding free energy” value amounted to 0.05 kcal/mol. For the sequence ATTATCACGTGGGAGT, the “relative binding free energy” value worked out at 0.05 kcal/mol.

With TTGGACACGTGTCTGT, the “relative binding free energy” value was 0.08 kcal/mol. On to AGTATCACGTGGGCTA, for which the “relative binding free energy” value worked out at 0.02 kcal/mol. The figure for CCGGTCACGTGGTGTT is 0.01 kcal/mol; for TTAGTCACGTGATGAT it is 0.23 kcal/mol; for TCTGTCACGTGTAGTT it is 0.1 kcal/mol. The figure for GGAGGCACGTGCGGCG is -0.26 kcal/mol; for TATAACACGTGGGGGT it is -0.31 kcal/mol; for AGTGCCACGTGGATTG it is -0.05 kcal/mol. For GGCTGCACGTGTGGAT, the “relative binding free energy” value is 0.15 kcal/mol. The figure for GTTTTCACGTGAATGG is 0.42 kcal/mol; for GCTGTCACGTGAAGGT it is 0.34 kcal/mol. The figure for GTACGCACGTGATTGG is -0.02 kcal/mol; for CGGGCCACGTGTGGGA it is -0.02 kcal/mol; for AGCAACACGTGGGTGG it is -0.18 kcal/mol. The figure for GTTAACACGTGTAGAG is 0.26 kcal/mol; for GTGTTCACGTGGTAAG it is 0.33 kcal/mol; for GTTTGCACGTGTTCAA it is 0.08 kcal/mol. For TCTTACACGTGATGTG, the “relative binding free energy” value is 0.11 kcal/mol. The figure for TTAATCACGTGGGGTA is -0.12 kcal/mol; for TTGGCCACGTGAGGGC it is 0.13 kcal/mol; for ATTATCACGTGTAGGC it is 0.12 kcal/mol. The figure for TCCTTCACGTGGTTGT is 0.18 kcal/mol; for TTGTGCACGTGGGTAA it is -0.09 kcal/mol; for CGTAACACGTGGTATG it is 0.02 kcal/mol. In the case of TGGGTCACGTGCGTAC, the “relative binding free energy” value is 0.04 kcal/mol. The figure for CAGTACACGTGTTAGG is 0.14 kcal/mol; for TAGTCCACGTGTTGAG it is 0.07 kcal/mol; for ACGATCACGTGGGTGT it is -0.07 kcal/mol. The figure for AAAGGCACGTGGCGGC is -0.09 kcal/mol. Consider GATTACACGTGGTTGC, for which the “relative binding free energy” value was 0.27 kcal/mol.

With TGCAGCACGTGAGGTT, the “relative binding free energy” value amounted to 0.23 kcal/mol. The figure for GTGTCCACGTGTGAAG is 0.19 kcal/mol; for ATGGGCACGTGTGGGC it is -0.03 kcal/mol. The figure for AGTGCCACGTGAAGGT is 0.04 kcal/mol. The figure for ACAGTCACGTGGTGGT is 0.09 kcal/mol; for AGTTCCACGTGGGAAG it is 0.1 kcal/mol. Take AAGTACACGTGTTTTG: the “relative binding free energy” value turned out to be 0.08 kcal/mol. The figure for TATAGCACGTGGAGTA is -0.08 kcal/mol.

Turning to TGGTGCACGTGTGGAG, the “relative binding free energy” value was 0.07 kcal/mol. ATGAACACGTGAGGGT: the “relative binding free energy” value came to 0.28 kcal/mol. The figure for GTGTCCACGTGCGTTG is -0.08 kcal/mol; for CAGTGCACGTGGCTGG it is -0.11 kcal/mol; for GTGTTCACGTGGGAGA it is 0.31 kcal/mol.

As for CAGCTCACGTGGTGTT, the “relative binding free energy” value is 0.3 kcal/mol. For CTTATCACGTGTTTGT, the “relative binding free energy” value is -0.05 kcal/mol. The figure for GTCGTCACGTGAGTGT is 0.24 kcal/mol; for TTAAGCACGTGAGGGT it is -0.02 kcal/mol. The figure for GGAAACACGTGTCTGT is 0.18 kcal/mol; for TAGTTCACGTGGAGGG it is 0.23 kcal/mol. The figure for TGGTGCACGTGCGGAC is -0.11 kcal/mol. Turning to ATACTCACGTGTGGGG, the “relative binding free energy” value worked out at 0.13 kcal/mol.

For CGCAACACGTGGTGGG, the “relative binding free energy” value is -0.03 kcal/mol.

With ATGGTCACGTGAGCTG, the “relative binding free energy” value is 0.3 kcal/mol. The figure for GTTGGCACGTGAATTT is 0.17 kcal/mol. The figure for GAGCTCACGTGGGCGG is 0.06 kcal/mol. The figure for CAGAGCACGTGTTAGG is -0.06 kcal/mol; for TGGTGCACGTGAGTGG it is 0.23 kcal/mol; for GTGGTCACGTGTAGCT it is 0.15 kcal/mol.

Turning to AAGGGCACGTGGCAGG, the “relative binding free energy” value was -0.23 kcal/mol. On to CGTGACACGTGGAGAG, for which the “relative binding free energy” value worked out at 0 kcal/mol. The figure for AAGGGCACGTGAAAGT is 0.08 kcal/mol. For GGATTCACGTGGTTGG, the “relative binding free energy” value is 0.37 kcal/mol. The figure for GGTGGCACGTGGTGCC is -0.18 kcal/mol; for ATAAACACGTGGGGTA it is -0.26 kcal/mol; for GTGGTCACGTGCTTCT it is 0.1 kcal/mol. The figure for GGCGACACGTGGAGGA is -0.02 kcal/mol. In the case of ATCGTCACGTGATATG, the “relative binding free energy” value is 0.18 kcal/mol.

As to ATGAGCACGTGTTTGT, the “relative binding free energy” value was -0.12 kcal/mol.

On to GAGTGCACGTGAAAGG, for which the “relative binding free energy” value stood at 0.14 kcal/mol. The figure for TGGCTCACGTGAGCGT is 0.24 kcal/mol. The figure for AATGGCACGTGATAGG is -0.05 kcal/mol. The figure for GTAGGCACGTGACTGA is 0.11 kcal/mol; for TATTTCACGTGGTAAC it is 0.24 kcal/mol; for TGGGTCACGTGACGAG it is 0.13 kcal/mol. With GGATACACGTGTGTTT, the “relative binding free energy” value amounted to 0.19 kcal/mol. The figure for GTTGGCACGTGTGAAG is 0.1 kcal/mol. GTCGCCACGTGTGTTT: the “relative binding free energy” value came to 0.03 kcal/mol. The figure for GAGTGCACGTGAATGG is 0.24 kcal/mol. Consider CATTGCACGTGCGGAG, for which the “relative binding free energy” value worked out at 0.01 kcal/mol. The figure for CTGGACACGTGTAAGG is 0.16 kcal/mol; for AGTTACACGTGAGGCG it is 0.38 kcal/mol. The figure for GTGTTCACGTGCTAAT is 0.17 kcal/mol; for TGACACACGTGGTGTT it is -0.13 kcal/mol. The figure for GTGGGCACGTGGGTAA is -0.19 kcal/mol. Regarding TACTTCACGTGAAGGT, the “relative binding free energy” value worked out at 0.24 kcal/mol. The figure for TTGTACACGTGAGTCT is 0.29 kcal/mol.

As for TTTATCACGTGACTAT, the “relative binding free energy” value worked out at 0.21 kcal/mol. CGGGCCACGTGGATGG: the “relative binding free energy” value was -0.25 kcal/mol. The figure for AAGGGCACGTGCCGGG is -0.11 kcal/mol.

Turning to TAAGCCACGTGGGTTA, the “relative binding free energy” value was -0.26 kcal/mol. The figure for TGCTGCACGTGTAGGA is 0.07 kcal/mol; for TGGGGCACGTGAGTGT it is 0.1 kcal/mol. The figure for GTCTGCACGTGTATGT is 0.07 kcal/mol. The figure for GGTGTCACGTGTAGGA is 0.22 kcal/mol; for CGAATCACGTGGGGGG it is -0.08 kcal/mol. As for CGTGGCACGTGAAGGC, the “relative binding free energy” value came out at 0.13 kcal/mol. The figure for GCATACACGTGTGGTG is 0.1 kcal/mol. As to TTTCACACGTGTATGT, the “relative binding free energy” value stood at 0.06 kcal/mol. For the sequence TTTTGCACGTGCGCTT, the “relative binding free energy” value was -0.11 kcal/mol.

With TTTCTCACGTGCAGTT, the “relative binding free energy” value came out at 0.28 kcal/mol. The figure for TGCGGCACGTGAGCGT is -0.12 kcal/mol; for ACTTACACGTGTTGGA it is 0.18 kcal/mol. The figure for CGGGTCACGTGGGCTA is -0.07 kcal/mol.

As for TGTGTCACGTGTGGTT, the “relative binding free energy” value came to 0.15 kcal/mol. The figure for ATGGGCACGTGTTTGG is -0.05 kcal/mol. The figure for CTTGACACGTGAGTGT is 0.15 kcal/mol. The figure for GGTCGCACGTGGGATA is -0.07 kcal/mol; for ATAATCACGTGGTGTT it is 0.07 kcal/mol. For the sequence TATGTCACGTGTGCAG, the “relative binding free energy” value turned out to be 0.06 kcal/mol. As to TGGATCACGTGTGTGT, the “relative binding free energy” value is 0.15 kcal/mol. As to TTGCACACGTGGGAGG, the “relative binding free energy” value is 0.02 kcal/mol. The figure for AAGCGCACGTGAGGGG is 0.09 kcal/mol. The figure for ATTGTCACGTGTAGGC is 0.21 kcal/mol; for TTGGACACGTGGGTTA it is -0.13 kcal/mol; for GATCACACGTGTTGGT it is 0.11 kcal/mol.

Turning to GTTTGCACGTGAGCAT, the “relative binding free energy” value was found to be 0.26 kcal/mol. On to TGTCGCACGTGAGATT, for which the “relative binding free energy” value is 0.16 kcal/mol.

For the sequence CTTGTCACGTGCAGGG, the “relative binding free energy” value is 0.03 kcal/mol. For ATATGCACGTGTGGTG, the “relative binding free energy” value is -0.02 kcal/mol. The figure for GTTCGCACGTGGAGTT is -0.08 kcal/mol; for GTGGGCACGTGGCGAA it is -0.18 kcal/mol; for TAGGGCACGTGTCGGA it is -0.15 kcal/mol. The figure for AGTTGCACGTGTCATA is -0.01 kcal/mol; for GTATACACGTGAGGTA it is 0.24 kcal/mol.

Consider GGAGGCACGTGGGTCG, for which the “relative binding free energy” value was -0.29 kcal/mol. Take AGTGTCACGTGGCGTT: the “relative binding free energy” value was found to be 0.04 kcal/mol. With CCGGTCACGTGTATGG, the “relative binding free energy” value worked out at 0.12 kcal/mol. The figure for GGATGCACGTGGATTG is 0.19 kcal/mol. The figure for AATGGCACGTGATGTC is 0.14 kcal/mol. As to TATGTCACGTGTAAAA, the “relative binding free energy” value came to 0.07 kcal/mol. The figure for TAGCTCACGTGGGGTG is 0.15 kcal/mol; for AGTGACACGTGGCGCG it is -0.15 kcal/mol. For TTTGGCACGTGGGGGA, the “relative binding free energy” value is -0.14 kcal/mol. The figure for GAGGGCACGTGGTGTT is -0.09 kcal/mol. The figure for AATGCCACGTGGTGGA is -0.24 kcal/mol; for TTGGTCACGTGGCTTT it is 0.12 kcal/mol.

Consider ATTCTCACGTGGATGG, for which the “relative binding free energy” value is 0.24 kcal/mol. The figure for AAGGGCACGTGAAGAT is 0.19 kcal/mol; for TACTTCACGTGGGTTC it is 0.25 kcal/mol. The figure for TTATGCACGTGAGTTT is 0.01 kcal/mol.
